Data reported in patent publication US12458818B2, “Anti-trophoblast cell surface antigen 2 (TROP2) antibodies and antibody drug conjugates comprising same” (CSPC MEGALITH BIOPHARMACEUTICAL CO., LTD., priority 2019, dated 2025).

Legend:
NCI-N87 = test: In vitro cytotoxicity assay, NCI-N87; type: cell-based; conditions: NCI-N87 human gastric carcinoma cell line
Method: (§1) DP002-HC1LC1-ADC is an antibody-drug conjugate comprising anti-TROP antibody DP002-HC1LC1, which comprises HCl (SEQ ID NO: 52) and LC 1 (SEQ ID NO: 58), conjugated to monomethyl auristatin E (MMAE) at a drug-antibody ratio (DAR) of 2. A DP002-HC1LC1-ADC was prepared using a conjugation method described in WO 2015/191883. A series of in vitro cytotoxicity assays were performed to assess the ability of DP002-HC1LC1-ADC to inhibit the growth of the following TROP2 expressing cancer cell lines: HCC1954 (a human breast carcinoma cell line), BxPC-3 (a human pancreatic adenocarcinoma cell line), and NCI-N87 (a human gastric carcinoma cell line). Experiments using staurospirone, a positive apoptosis control, and anti-TROP2 antibody DP002-HC4LC5, which comprises HC4 (SEQ ID NO: 55) and LC5 (SEQ ID NO: 62), were performed in parallel.

[1] = test system: xenografted MDA-MB-468 human breast adenocarcinoma tumors; test: MDA-MB-468 xenograft efficacy in female nude mice (Example 4); type: in vivo, mouse; conditions: 4 mg/kg IV once on Day 0
Method: The anti-tumor activity of DP002-HC4LC5-ADC was evaluated as a single agent in female nude mice bearing xenografted MDA-MB-468 human breast adenocarcinoma tumors.
(§2) Each mouse was inoculated with 5×10^6 MDA-MB-468 tumor cells (in 0.1 mL, 1:1 with Matrigel) at the right flank by subcutaneous administration under sterile conditions. When the tumors reached a volume of ˜150 mm^3, mice were randomized into one of 7 treatment groups (6 mice per group), as outlined in Table 12, and treatments began. All doses of DP002-HC4LC5-ADC were administered by intravenous injection via tail vein injection.
(§3) Tumor size and animal body weight were measured twice per week. Clinical signs were recorded daily. Tumors were measured using a caliper in two dimensions (i.e., length (a) and width (b)), and tumor volumes were estimated from measurements of the two diameters of the individual tumors as follows: Tumor Volume (mm^3)=(a×b^2)/2.
(§4) Average tumor growth curves for each treatment group were plotted with the observation time on the X-axis, and corresponding tumor volume (geometric mean) on the Y-axis. A two-tailed t-test was used to analyze the statistical significance of any differences between the treatment groups and the control group. Tumor Growth Inhibition (TGI) was calculated after each tumor volume measurement according to the formula: % TGI=(TVcn−TVtn)/TVcn×100, where TVtn and TVcn are the mean tumor Volume of treated and control groups, respectively. Body weight change (CBW %) was calculated after each body weight measurement according to the formula: CBW %=(BWn−BW0)/BW0×100, where BWn is the body weight at day n and BW0 is the body weight at day 0 respectively.

human TROP2 [2] = target: T1, human TROP2 (Homo sapiens, UniProt P09758); test: SPR affinity ranking of humanized antibodies (Table 8C); type: binding
T1 sequence (P09758 27-323): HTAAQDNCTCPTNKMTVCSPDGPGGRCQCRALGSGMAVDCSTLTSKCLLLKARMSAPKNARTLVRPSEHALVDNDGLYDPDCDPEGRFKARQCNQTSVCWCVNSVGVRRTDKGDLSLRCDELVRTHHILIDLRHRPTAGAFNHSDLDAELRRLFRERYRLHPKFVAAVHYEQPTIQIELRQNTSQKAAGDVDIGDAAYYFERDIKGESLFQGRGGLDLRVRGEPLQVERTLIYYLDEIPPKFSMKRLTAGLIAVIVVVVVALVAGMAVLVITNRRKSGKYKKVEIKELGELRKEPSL

human TROP2 [3] = target: T1, human TROP2; test: Surface plasmon resonance kinetics and affinities (Table 8B); type: binding; conditions: SPR, analyte TROP2
Method: Surface plasmon resonance (SPR) experiments were performed to determine the kinetics and affinities of certain antibodies shown in Table 8A.

HCC1954 = test: In vitro cytotoxicity assay, HCC1954; type: cell-based; conditions: HCC1954 human breast carcinoma cell line
Method: as §1

[4] = Body weight and tolerability in xenografted nude mice (Example 4); type: in vivo, mouse; conditions: 4 mg/kg IV once on Day 0
Method: as §2, §3, §4

[5] = test system: human MDA-MB-468 breast adenocarcinoma tumor xenografts; test: MDA-MB-468 xenograft efficacy in NOD/SCID mice (Example 3); type: in vivo, mouse; conditions: single dose on Day 0; for T/C (%) / TGI (%): Day 42
Method: (§5) The efficacies of two anti-TROP2-MMAE antibody drug conjugates, DP002-HC1LC5-ADC (DAR ˜2) and DP002-HC4LC5-ADC (DAR ˜1.6-2.3), in inhibiting tumor growth in mice bearing human MDA-MB-468 breast adenocarcinoma tumor xenografts were tested. DP002-HC1LC5-ADC comprises an anti-TROP antibody that comprises HC 1 (SEQ ID NO: 52) and LC5 (SEQ ID NO: 62); DP002-HC4LC5-ADC comprises an anti-TROP antibody that comprises HC 4 (SEQ ID NO: 44) and LC5 (SEQ ID NO: 62). Briefly, 48 NOD/SCID mice (female, 6-8 weeks of age) were implanted with 0.1 ml MDA-MB-468 cells (lx 10^7 cell/ml). When the tumors sizes reached above 181 mm^3 (34 days after tumor inoculation), the mice were sorted randomly into 7 groups (6 mice/group) and treated according to the schedule provided in Table 10 below: […]

BxPC-3 = test: In vitro cytotoxicity assay, BxPC-3; type: cell-based; conditions: BxPC-3 human pancreatic adenocarcinoma cell line
Method: as §1

[6] = Side effects in xenografted NOD/SCID mice (Example 3); type: in vivo, mouse; conditions: 1 mg/kg or 4 mg/kg intravenous, single dose on Day 0
Method: as §5

HCC38 = test: In vitro cytotoxicity assay, HCC38; type: cell-based; conditions: HCC38 TROP2+ human mammary ductal carcinoma cell line
Method: (§6) Additional in vitro cytotoxicity assays were performed to test the ability of DP002-HC1LC1-ADC to inhibit the growth of MDA-MB-468 (a TROP2^+ human breast adenocarcinoma cell line) and HCC38 (a TROP2^+ human mammary ductal carcinoma cell line).

MDA-MB-468 = test: In vitro cytotoxicity assay, MDA-MB-468; type: cell-based; conditions: MDA-MB-468 TROP2+ human breast adenocarcinoma cell line
Method: as §6

B1: HC4/LC5 (antibody)
heavy: QVQLVQSGAEVKKPGSSVKVSCKASGYTFTDYSINWVRQAPGQGLEWMGVISTYYGDASYNQKFKGRVTITADESTSTAYMELSSLRSEDTAVYYCARYGDGYNQFDYWGQGTLVTVSS[human IgG1 constant region cut from this listing]
light: DIQMTQSPSSLSASVGDRVTITCRVSESVDSYGNNFMHWYQQKPGKAPKLLIYRASNLESGVPSRFSGSGSGTDFTFTISSLQPEDIATYYCQQSYEDPYTFGGGTKLEIKRTVAAPSVFIFPPSDEQLKSGTASVVCLLNNFYPREAKVQWKVDNALQSGNSQESVTEQDSKDSTYSLSSTLTLSKADYEKHKVYACEVTHQGLSSPVTKSFNRGEC
Max % inhibition (NCI-N87): little to no activity
Max % inhibition (NCI-N87; listed as DP002HC4LC5): 7.07%
% TGI Day 70 [1]: 8.32%
Tumor Volume (mm^3, Mean ± SEM) Day 70 [1]: 1249.79 ± 70.34 mm^3
Tumor Weight (g, Mean ± SEM) Day 84 [1]: 1.710 ± 0.058 g
tumor inhibition effect [1]: did not possess significant tumor inhibition effects
Tumor Weight (g, Mean ± SEM) Day 70 ([1]; animals euthanized Day 70): 1.032 ± 0.073 g
Number of mice demonstrating full tumor regression at Week 4 following first dose ([1]; n = 6 unless specified): 0
Number of mice demonstrating full tumor regression at Week 5 following first dose ([1]; n = 6 unless specified): 0
Number of mice demonstrating full tumor regression at Week 6 following first dose ([1]; n = 6 unless specified): 0
Number of mice demonstrating full tumor regression at Week 7 following first dose ([1]; n = 6 unless specified): 0
Number of mice demonstrating full tumor regression at Week 8 following first dose ([1]; n = 6 unless specified): 0
Number of mice demonstrating full tumor regression at Week 9 following first dose ([1]; n = 6 unless specified): 0
Number of mice demonstrating full tumor regression at Week 10 following first dose ([1]; n = 6 unless specified): 0
Number of mice demonstrating full tumor regression at Week 11 following first dose ([1]; n = 6 unless specified): 0 (n = 2)
Number of mice demonstrating full tumor regression at Week 12 following first dose ([1]; n = 6 unless specified): 0 (n = 2)
Ka (human TROP2 [2]): 1.72e+06 M⁻¹ s⁻¹
Kd (1/s) (human TROP2 [2]): 0.000138 s⁻¹
Rmax (RU) (human TROP2 [2]): 49.9 RU
Rmax (human TROP2 [3]): 50.7
ka (human TROP2 [3]): 2.2e+06 M⁻¹ s⁻¹
kd (human TROP2 [3]): 4.05e-05 s⁻¹
Max % inhibition (HCC1954): little to no activity
Max % inhibition (HCC1954; listed as DP002HC4LC5): 2.28%
Body Weight (g, Mean ± SEM) Day 70 [4]: 21.03 ± 0.58 g
Body Weight (g, Mean ± SEM) Day 84 [4]: 22.90 ± 0.70 g
Drug-related Death [4]: 0
average body weight increase (%) on Day 84 compared to Day 0 [4]: 17.79%
average body weight increase on Day 70 compared to Day 0 [4]: 1.78 g
average body weight increase on Day 84 compared to Day 0 [4]: 3.65 g
BWC (%) Day 70 (body weight change vs Day 0) ([4]; listed as DP002-HC4LC5): 9.31%
Tumor Size (mm^3) at Day 42, mean ± SEM ([5]; 4 mg/kg intravenous): 742 ± 74 mm^3
T/C (%) ([5]; 4 mg/kg intravenous): 102%
TGI (%) ([5]; 4 mg/kg intravenous, listed as DP002-HC4LC5, 4 mg/kg): −2%
TGI (%) ([5]; 4 mg/kg intravenous, listed as antibody control, 4 mg/kg): did not have any effect on tumor growth
Max % inhibition (BxPC-3): little to no activity
Max % inhibition (BxPC-3; listed as DP002HC4LC5): 2.95%

B2: DP002-HC1LC5-ADC: anti-TROP2-MMAE antibody drug conjugate (DAR ~2) of antibody with HC1 (SEQ ID NO: 52) and LC5 (SEQ ID NO: 62) (conjugate)
heavy: B1 heavy with S16A, I70M, A72T, E74T, S84R, E89D, L114M
light: B1 light
modifications: MMAE conjugate, DAR ~2
side effects based on changes in body weight, survival and gross observations [6]: No obvious side effects
Tumor Size (mm^3) at Day 42, mean ± SEM ([5]; 1 mg/kg intravenous): 583 ± 49 mm^3
Tumor Size (mm^3) at Day 42, mean ± SEM ([5]; 4 mg/kg intravenous): 0 ± 0 mm^3
average tumor volume on Day 56 ([5]; 4 mg/kg intravenous): 0 mm^3
T/C (%) ([5]; 1 mg/kg intravenous): 77%
TGI (%) ([5]; 1 mg/kg intravenous): 23%
T/C (%) ([5]; 4 mg/kg intravenous): 0%

B3: HC1/LC1 (antibody)
heavy: B1 heavy with S16A, I70M, A72T, E74T, S84R, E89D, L114M
light: DIVMTQSPDSLAVSLGERATINCRVSESVDSYGNNFMHWYQQKPGQPPKLLIYRASNLESGVPDRFSGSGSGTDFTLTISSLQAEDVAVYYCQQSYEDPYTFGQGTKLEIKRTVAAPSVFIFPPSDEQLKSGTASVVCLLNNFYPREAKVQWKVDNALQSGNSQESVTEQDSKDSTYSLSSTLTLSKADYEKHKVYACEVTHQGLSSPVTKSFNRGEC
Ka (human TROP2 [2]): 1.63e+06 M⁻¹ s⁻¹
Kd (1/s) (human TROP2 [2]): 0.000105 s⁻¹
Rmax (RU) (human TROP2 [2]): 48.4 RU
Rmax (human TROP2 [3]): 52.4
ka (human TROP2 [3]): 1.97e+06 M⁻¹ s⁻¹
kd (human TROP2 [3]): 0.00013 s⁻¹
Max % inhibition (HCC38): 10.87%
Max % inhibition (MDA-MB-468): 14.57%

B4: HC1/LC5 (antibody)
heavy: B1 heavy with S16A, I70M, A72T, E74T, S84R, E89D, L114M
light: B1 light
Ka (human TROP2 [2]): 1.39e+06 M⁻¹ s⁻¹
Kd (1/s) (human TROP2 [2]): 0.000149 s⁻¹
Rmax (RU) (human TROP2 [2]): 52.5 RU
Rmax (human TROP2 [3]): 51.7
ka (human TROP2 [3]): 1.81e+06 M⁻¹ s⁻¹
kd (human TROP2 [3]): 0.000104 s⁻¹

B5: DP002-HC1LC1-ADC (conjugate)
heavy: B1 heavy with S16A, I70M, A72T, E74T, S84R, E89D, L114M
light: B3 light
modifications: conjugated to monomethyl auristatin
Max % inhibition (HCC38): 22.56%

Substitutions are numbered along the chain they refer to.
